Here are results for 83 molecules from ChEMBL document CHEMBL1201862, “PubChem BioAssay data set” (2004).

The structures appear in SMILES notation.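 Where inhibition never reached the appropriate level, the endpoint shown equals the highest concentration tested. Otherwise, values were interpolated linearly from a five-concentration, 48-hour dose response in 96-well plates. At the GI50, growth is halved.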 Calls of active or inactive are those of the source. Rule as the data show it: active = GI50 up to about 1.1 µM and inactive = higher.

This assay deals with NCI-H322M. As to the kind of experiment: DTP human tumour cell line panel, 48 h.
What is called GI50 is the concentration that inhibits growth by half. For `c1cncc(-c2cc(-c3cc(-c4cccnc4)[nH]n3)n[nH]2)c1`, the GI50 is inactive: > 100 µM.

On to `COc1cc2c(cc1OC)-c1cc3cc(OC)c(OC)cc3c(=O)n1CC2`, for which the GI50 is inactive: 5.51 µM.

For `O=c1c2ccccc2c2ccccc2c(=O)n1-c1cc2c3ccccc3ccc2c2ccccc12`, the GI50 is inactive: > 100 µM.

For `FC(F)(F)c1n[nH]c(SCc2ccc(Cl)cc2)n1`, the GI50 is inactive: > 100 µM.

Take `c1ccc(C2Nc3ccccc3C3OCCCC23)cc1` (stereo not drawn): the GI50 is inactive: 13.6 µM.

As for `Cc1ccc(CCCCCOc2ccc(C3=NCCO3)cc2)s1`, the GI50 was inactive: > 100 µM.

As to `COc1cc2c(cc1OC)C13CCN4CC5CCOC6CC(=O)N2C1C6C5CC43` (stereo not drawn), the GI50 is inactive: > 100 µM.

With `N/N=C1\C(=O)N(C2CCCCCC2)C(=O)C1C(=O)NC1CCCCCC1` (stereo not drawn), the GI50 is inactive: 42.6 µM.

On to `C/C(N)=[N+](/C)[O-]`, for which the GI50 was inactive: > 100 µM.

Regarding `CN(C)C(=S)N=C(Nc1ccccc1)Nc1ccccc1`, the GI50 is inactive: > 100 µM.

Regarding `CCOC(=O)C(CC#Cc1ccc(C#CCC(NC(C)=O)C(=O)OCC)cc1)NC(C)=O` (stereo not drawn), the GI50 is inactive: > 100 µM.

Take `COC(=O)[C@H]1CO[C@H]2C/C(C)=C/CC/C(C)=C/CC[C@@]3(C)O[C@@H]3C[C@H]21`: the GI50 was inactive: 11.6 µM.

`Cc1cc(=O)nc(Sc2ccc([N+](=O)[O-])cc2[N+](=O)[O-])[nH]1`: the GI50 is inactive: > 52.2 µM.

For the molecule `CCOC(=O)c1ccc(Nc2nc3cc(C(F)(F)F)ccc3nc2-c2ccccc2)cc1`, the GI50 is inactive: > 100 µM.

For the molecule `Cc1cnc2[nH]c(-c3ccccc3)cc(=O)c2c1`, the concentration for 50% growth inhibition (GI50) was active: 0.25 µM.

On to `Cn1c(=O)c2c(ncn2Cc2ccc(O)c([N+](=O)[O-])c2)n(C)c1=O`, for which the GI50 was inactive: > 100 µM.

Turning to `Sc1nn2c(COc3cccc(OCc4nnc5sc(S)nn45)c3)nnc2s1`, the GI50 was inactive: > 100 µM.

As to `c1ccc(C2OCC(OC3CCCCO3)CO2)cc1` (stereo not drawn), the GI50 is inactive: > 100 µM.

For `CCN(CC)C(=S)SC(C(=O)Nc1nnc(-c2ccc(Cl)cc2)o1)c1ccccc1` (stereo not drawn), the GI50 is inactive: 18.5 µM.

For the molecule `COC(=O)C(Cc1c(C2Nc3ccccc3C2CC(NC(=O)CNC(C)=O)C(=O)OC)[nH]c2ccccc12)NC(=O)CNC(C)=O` (stereo not drawn), the GI50 is inactive: > 100 µM.

For the molecule `Cc1cc(Cl)ccc1NC(=O)/C(CC(=O)CC(c1ccccc1)c1c(O)c2ccccc2oc1=O)=N\O` (stereo not drawn), the GI50 is inactive: > 100 µM.

For `COc1cc2c(cc1C)NC(=O)/C2=C/c1cccnc1`, the GI50 was inactive: 15.4 µM.

On to `C=CCNC(=O)NCCCC(NC(C)=O)C(=O)NCc1ccccc1` (stereo not drawn), for which the GI50 was inactive: > 100 µM.

With `CCOC(=O)C(Cc1ccc([N+](=O)[O-])cc1)NC(=O)CC1c2ccccc2-c2ccccc21` (stereo not drawn), the GI50 is inactive: > 100 µM.

Consider `COC(=O)CC1C(COC(C)=O)OC(n2cc(C)c(=O)[nH]c2=O)C1OC(C)=O` (stereo not drawn), for which the GI50 was inactive: > 100 µM.

On to `Cc1cn(CC2=NCCCN2)c(=O)[nH]c1=O`, for which the GI50 is inactive: > 100 µM.

On to `CC(=O)NCCSC(=O)c1ccccc1`, for which the GI50 was active: 0.76 µM.

As for `NC(=O)N/N=C(\Cc1nc2ccc(Cl)cc2nc1O)C(=O)Nc1ccc(Cl)cc1Cl`, the GI50 was inactive: > 100 µM.

`CO/C(=N\N=C\c1cccc(Cl)c1)c1ccncc1`: the GI50 was inactive: > 10 µM.

Take `O=C(O/N=C1/CCC/C1=C\c1ccccc1)c1ccc([N+](=O)[O-])cc1`: the GI50 is inactive: > 100 µM.

As to `Cc1cc2c(cc1Br)C1(C)CCC(C)C1(C)O2` (stereo not drawn), the GI50 is inactive: 60.1 µM.

As to `OC1(c2ccccc2)C2CC=CC2C1(c1ccccc1)c1ccccc1` (stereo not drawn), the GI50 is inactive: 26.4 µM.

For the molecule `CSC1(SC)CCCCCCCCCCC1`, the GI50 was inactive: 99.3 µM.

`COc1c(C(=O)CC2c3c(cc4oc(C)cc(=O)c4c3OC)OC(=N)C2c2nc3ccccc3[nH]2)c(O)c(OC)c2occc12` (stereo not drawn): the GI50 was inactive: > 100 µM.

`CC1C(c2ccccc2)=CCON1c1ccccc1` (stereo not drawn): the GI50 is inactive: > 100 µM.

Consider `COc1cc(OC)c2c3c(OC)cc(OC)c4c(=O)c(O)c(C[C@@H](C)O)c(c5c(C[C@@H](C)O)c(O)c(=O)c1c25)c43`, for which the GI50 was inactive: 26.5 µM.

As for `CC(=O)C(=Cc1cn(C)c(=O)n(C)c1=O)C(C)=O`, the GI50 is inactive: 74 µM.

`COC1OC2COC1(OCc1ccccc1)C1OC(C)(C)OC21` (stereo not drawn): the GI50 is inactive: > 100 µM.

As to `c1ccc2c(c1)CC1=C(O2)c2ccccc2OC1`, the GI50 is inactive: 36.7 µM.

As to `Cc1cc(N(CCOS(C)(=O)=O)CCOS(C)(=O)=O)ccc1/C=N/c1ccc(-c2csc(-c3ccccc3)n2)c(Cl)c1`, the GI50 is inactive: 11.3 µM.

`N=C(N)NS(=O)(=O)c1ccc(NCc2c3ccccc3[n+]([O-])c3ccccc23)cc1`: the GI50 is inactive: 30.8 µM.

Consider `CCOC(=O)NC(=O)c1cn(C2OC(COC(=O)CCCCCCCCC(=O)OCC3OC(n4cc(C(=O)NC(=O)OCC)c(=O)[nH]c4=O)C4OC(C)(C)OC34)C3OC(C)(C)OC32)c(=O)[nH]c1=O` (stereo not drawn), for which the GI50 was inactive: > 100 µM.

For `COC(=O)c1cc(O)ccc1NC(=O)c1ccc(O)cc1`, the GI50 was inactive: > 100 µM.

As to `CC(=O)Nc1ccc(/C=C/C(=O)c2sc(C(N)=S)nc2C)cc1`, the GI50 is inactive: > 100 µM.

Turning to `COC(=O)c1c(OC(C)=O)ccc2c1c1cc3ccccc3c(OC(C)=O)c1n2C`, the GI50 was inactive: 27.1 µM.

In the case of `COC(=O)c1ccc(C(=O)OC)c2nc3cc(C)ccc3nc12`, the GI50 was inactive: 82.2 µM.

Consider `COc1c(O)ccc(/C=N/NC(=S)NCOCCOC(C)=O)c1OC`, for which the GI50 is inactive: > 100 µM.

Consider `CC(C)(C)Nc1noc(=O)n1C(C)(C)C`, for which the GI50 is inactive: > 100 µM.

With `O=C(c1cc(Cl)cc(Cl)c1)N(Cc1cccnc1)C(=S)N(Cc1cccnc1)C(=O)c1cc(Cl)cc(Cl)c1`, the GI50 is inactive: 34.3 µM.

As to `CC1(C)C=C(/C=N/Nc2ccc([N+](=O)[O-])cc2)C(C#N)=C(O)C1(C#N)C#N`, the GI50 was inactive: > 100 µM.

Turning to `O=C1Nc2cccc3ncn(c23)C2=C1CCCC2`, the GI50 is inactive: > 100 µM.

Turning to `COc1ccc2c(c1)C(O)(C(F)(F)F)c1cc(C(=O)C(F)(F)F)c3ccccc3c1N2` (stereo not drawn), the GI50 is inactive: 12.2 µM.

Consider `COc1cc2c(c(OC)c1OC)[C@@H]1CCCCC[C@@H]1CCC2=O`, for which the GI50 is inactive: > 100 µM.

Regarding `Clc1ccc(OCc2nn3c(CCc4nnc5sc(COc6ccc(Cl)cc6)nn45)nnc3s2)cc1`, the GI50 is inactive: 41 µM.

For `NC(=O)c1cc2ccccc2o/c1=N/O`, the GI50 is inactive: > 100 µM.

As for `O=C1/C(=C/c2ccncc2)C(n2cccc2)c2c(Br)sc(Br)c21` (stereo not drawn), the GI50 was inactive: 2.36 µM.

In the case of `CN(C)CCCSc1c2ccccc2nc2cc(NCC(=O)Nc3ccccc3-c3ccccc3NC(=O)CNc3ccc4c(SCCCN(C)C)c5ccccc5nc4c3)ccc12`, the GI50 is inactive: > 100 µM.

As for `OCc1cc2ccncc2c2c1[nH]c1ccccc12`, the GI50 is inactive: 4.91 µM.

With `CC(C)(Oc1ccc(Cl)cc1)C(=O)N(C(=O)N1CCCCC1)c1ccccc1`, the GI50 is inactive: 16 µM.

For `N#Cc1nc(-c2ccco2)oc1N`, the GI50 was inactive: > 10 µM.

As to `CN(C)CC1CC/C(=C\c2ccc(Cl)cc2)C1=O` (stereo not drawn), the GI50 is inactive: 18.6 µM.

For the molecule `COC1C(OC(=O)/C=C/C=C/C=C/C=C\C(=O)O)CCC2(CO2)C1C1(C)OC1CC=C(C)C` (stereo not drawn), the GI50 is inactive: > 100 µM.

Regarding `O=C1N/C(=N/N=C/C(O)C(O)C(O)C(O)CO)N/C1=C\c1ccco1` (stereo not drawn), the GI50 is inactive: > 100 µM.

`N#CC(C(=O)C(=O)Nc1ccc(Cl)c(Cl)c1)c1ccc(Cl)cc1` (stereo not drawn): the GI50 was inactive: > 100 µM.

Consider `O=C1CCC2(O)C3Cc4ccc(Oc5nnnn5-c5ccccc5)c5c4C2(CCN3CC2CC2)C1O5` (stereo not drawn), for which the GI50 is inactive: > 100 µM.

With `Cc1ccc(S(=O)(=O)NNC(=S)Nc2cccc3ccccc23)cc1`, the GI50 is inactive: > 100 µM.

For `Cn1c(=O)c2[nH]cnc2n(CC(N)=O)c1=O`, the GI50 is inactive: > 100 µM.

`O=c1oc2ccc3ccccc3c2cc1-c1cn2ccsc2n1`: the GI50 is inactive: > 100 µM.

In the case of `CCCCCCCCCC1CC(=O)Oc2cccc(O)c21` (stereo not drawn), the GI50 is inactive: 4.94 µM.

Regarding `Nc1ncnc2c1ccn2CC=C(CO)CO`, the GI50 was inactive: > 100 µM.

On to `O=C(c1ccccc1)C1OC12C(=O)Nc1ccccc12` (stereo not drawn), for which the GI50 is inactive: 33.3 µM.

`Cn1ccc(C(=O)N2CCSC2=S)c(OCc2ccccc2)c1=O`: the GI50 is inactive: > 100 µM.

Take `COc1cc(C(C#N)NNC(=O)Cc2ccccc2)cc(OC)c1OC` (stereo not drawn): the GI50 was inactive: > 100 µM.

`C[N+](C)(C)CC(=O)N/N=C(\Cc1nc2ccc([N+](=O)[O-])cc2nc1O)C(=O)Nc1nc2ccc([N+](=O)[O-])cc2s1`: the GI50 is inactive: 76.4 µM.

Consider `CC1(C)CCC[C@]2(C)[C@H]3[C@H](C#N)c4cc(O)c(O)cc4O[C@@]3(C)CC[C@@H]12`, for which the GI50 is inactive: > 10 µM.

Regarding `CO[C@H](C(=O)O[C@H]1C(=O)N2CCC3CCC1C32C)c1ccccc1` (stereo partly drawn), the GI50 is inactive: > 100 µM.

As for `N[C@@H](CSCSC[C@H](N)C(=O)O)C(=O)O`, the GI50 was inactive: > 225 µM.

In the case of `N/C(S)=N/N=C/c1ccc(O)cn1`, the GI50 is inactive: 13.5 µM.

On to `CC[N+](C)(CC)CC(C)(C)C(=O)/C=C/c1ccc(/C=C/C(=O)C(C)(C)C[N+](C)(CC)CC)cc1`, for which the GI50 is inactive: > 100 µM.

Turning to `C[n+]1c(-c2ccc(/C=N\N3CCN(/N=C/c4ccc(-c5cn6ccccc6[n+]5C)cc4)CC3)cc2)cn2ccccc21`, the GI50 is inactive: > 100 µM.

Take `COc1cc2oc3c(c(=O)c2c(O)c1/C=C/C(C)C)C(C=C(C)C)Oc1cc(O)ccc1-3` (stereo not drawn): the GI50 was inactive: 16 µM.

`O=C(O)CCCNS(=O)(=O)c1ccccc1`: the GI50 was inactive: > 100 µM.

For `Cc1c2cc[n+](C)cc2c(C)c2c1[nH]c1ccc(Cl)cc12`, the GI50 was active: 0.933 µM.
